Some of the results follow.
Legend:
[1] = test system: HSkMC (human skeletal muscle cells); test: cytotoxicity call (relative viability < 0.9); conditions: 10 µM
[2] = test system: HepG2; test: cytotoxicity call (relative viability < 0.9); conditions: 10 µM
[3] = test system: S. aureus RN4220; test: growth inhibition call (relative growth <= 0.2); conditions: 50 µM

Structure (SMILES)	cytotoxicity call [1]	cytotoxicity call [2]	growth inhibition call [3]
C[C@H]1CN([C@@H](C)CO)C(=O)c2cc(NC(=O)CCN3CCOCC3)ccc2O[C@@H]1CN(C)CC1CCCCC1	inactive	inactive	inactive
Cc1noc(C)c1S(=O)(=O)Nc1ccc2c(c1)CC(=O)N([C@@H](C)CO)C[C@@H](C)[C@H](CN(C)C(=O)Nc1ccccc1)O2	inactive	inactive	inactive
COc1ccc(CN(C)C[C@H]2Oc3ccc(NS(=O)(=O)c4c(C)noc4C)cc3CC(=O)N([C@H](C)CO)C[C@H]2C)cc1	inactive	inactive	inactive
COCC#Cc1ccc2c(c1)O[C@@H](CN(C)C(=O)CN(C)C)[C@H](C)CN([C@H](C)CO)S2(=O)=O	inactive	inactive	inactive
CN1C(=O)c2cc(NC(=O)C3CCOCC3)ccc2OC[C@H]2O[C@H](CC(=O)NCc3ccccc3F)CC[C@@H]21	inactive	inactive	inactive
Cc1cc(N)n2ncnc2n1	inactive	inactive	inactive
C[C@H](CO)N1C[C@H](C)[C@@H](CN(C)Cc2ccc3c(c2)OCO3)Oc2c(NS(C)(=O)=O)cccc2C1=O	inactive	inactive	inactive
COc1cc(CO)cc(I)c1O[C@H]1C=C(C(=O)NCCO)C[C@@H](N(Cc2ccc(F)cc2)C(=O)[C@H]2CCCO2)[C@@H]1O	inactive	inactive	inactive
C[C@H](CO)N1C[C@H](C)[C@@H](CN(C)S(C)(=O)=O)Oc2c(NC(=O)Nc3ccc(C(F)(F)F)cc3)cccc2C1=O	inactive	inactive	inactive
COc1ccc(NC(=O)Nc2ccc3c(c2)C(=O)N([C@H](C)CO)C[C@H](C)[C@H](CN(C)C(=O)Nc2ccc(C(F)(F)F)cc2)OCCCC[C@@H](C)O3)cc1	inactive	inactive	inactive
CC(C)CC#Cc1ccc2c(c1)O[C@H](CN(C)C(=O)Cc1ccncc1)[C@H](C)CN([C@H](C)CO)S2(=O)=O	inactive	inactive	inactive
C[C@H]1CN([C@@H](C)CO)C(=O)c2cccc(NS(=O)(=O)c3ccccc3)c2O[C@H]1CN(C)S(=O)(=O)c1cccs1	inactive	inactive	inactive
Cn1sccc1=O	inactive	inactive	inactive
COc1ccccc1CNC(=O)C[C@H]1C[C@@H]2c3cc(NC(=O)NC4CCCC4)ccc3O[C@@H]2[C@@H](CO)O1	inactive	inactive	inactive
Cc1noc(C)c1NC(=O)N(C)C[C@H]1OCCCC[C@H](C)Oc2ccc(NS(=O)(=O)c3cccs3)cc2C(=O)N([C@@H](C)CO)C[C@H]1C	inactive	inactive	inactive
O=C(C[C@@H]1CC[C@@H]2[C@H](COC[C@H](O)CN2S(=O)(=O)c2cccc(F)c2)O1)NCc1ccncn1	inactive	inactive	inactive
C[C@@H]1CCCCO[C@@H](CN(C)Cc2ccccc2)[C@@H](C)CN([C@H](C)CO)C(=O)c2cc(NS(=O)(=O)c3cccs3)ccc2O1	inactive	inactive	inactive
C[C@@H]1CN([C@@H](C)CO)C(=O)c2cc(NC(=O)C3CC3)ccc2O[C@@H]1CN(C)S(=O)(=O)c1cccs1	inactive	inactive	inactive
C[C@H](CO)N1C[C@H](C)[C@@H](CN(C)Cc2ccc(Cl)c(Cl)c2)Oc2ccc(NS(=O)(=O)c3ccc(Cl)cc3)cc2C1=O	active	active	inactive
Cn1cnc(CCNC(=O)C[C@H]2CC[C@@H]3[C@H](COC[C@@H](O)CN3C(=O)Nc3ccc(C(F)(F)F)cc3)O2)c1	inactive	inactive	inactive
CCC(=O)N1C[C@]2(CN(C2)S(=O)(=O)C)c2c(n(c3cc(ccc23)OC)C)[C@@H]1CO	inactive	inactive	inactive
O=C(N[C@H]1CC=CC[C@H](CC(=O)N(CCO)Cc2ccccc2)C(=O)N[C@@H](Cc2c[nH]c3ccccc23)COC1=O)OCC1c2ccccc2-c2ccccc21	inactive	inactive	inactive
COc1ccc([Si](C)(C)[C@H]2[C@H](CCO)O[C@@]3(C(=O)N(Cc4ccccc4)c4ccc(N5C(=O)COc6ccccc65)cc43)[C@@H]2C)cc1	inactive	active	inactive
C[C@@H]1CN([C@H](C)CO)S(=O)(=O)c2ccc(C#Cc3ccccc3F)cc2O[C@H]1CN(C)C(=O)Cc1ccncc1	inactive	inactive	inactive
C[C@@H]1CN([C@@H](C)CO)C(=O)c2cc(NC(=O)Nc3cccc4ccccc34)ccc2O[C@H]1CN(C)C(=O)Nc1ccccc1	inactive	inactive	inactive
O=C(C[C@@H]1CC[C@@H]2[C@H](COC[C@@H](O)CN2CC2CCOCC2)O1)N1CCOCC1	inactive	inactive	inactive
O=C(O)[C@H]1C[C@@H](CP(=O)(O)O)CCN1	inactive	inactive	inactive

From the antibiotic and cytotoxicity screens of Wong et al. (2023)
